# Experimental data as given in PubChem BioAssay AID1345083 (National Center for Advancing Translational Sciences (NCATS), 2018).
# Out of some 94,000 compounds screened, about 6,200 (6.6%) were called active. This list was built around the results that the source calls inconclusive (neither active nor inactive); the mix of calls is not that of the screen. Calls follow the shape of the dose curve; as a rule, active = well fitted inhibition curve with a large enough effect; inconclusive = small, poorly fitted or top-dose-only effect; inactive = flat fitted curve, though single readings scatter. A potency beside an inconclusive call is a rough fit, not a confirmed value.
# Assay: Cytotoxic Profiling in HEK 293 Cell Line of Diverse Libraries Using Quantitative High-Throughput Screening; also: nearly all actives have a fitted effect of over 60% in size
# Settings: HEK 293 viability, ATP luminescence (CellTiter-Glo), 48-72 h; series mostly up to 115 µM
# How it was run: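 250 HEK 293 cells/well; compound by pintool; incubated 48 or 72 hr at 37 degree Celsius; CellTiter-Glo added, 10 min RT, luminescence imaged.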
# Potency is read from the fitted curve at half-maximal effect; tags tell the direction and shape of the fitted curve.
row,SMILES,Potency
1,O=C1CC(c2ccccc2)N(Cc2ccncc2)CCCN(Cc2ccccn2)CCN1 (stereo not drawn),"inconclusive: 44.7 µM [inhibitor, partial curve, poor fit]"
2,Cc1ccc(CN2C[C@@H](CO)[C@H](c3nc(-c4ccncc4)no3)C2)cc1,"inconclusive: 50.1 µM [inhibitor, partial curve, poor fit]"
3,O=C1CCN(CC(O)Cc2ccccc2)c2ccc(F)cc2CN1Cc1ccccc1 (stereo not drawn),active: 31.6 µM
4,COc1ccccc1C(=O)N1CCC(C(=O)N2CCC(N3CCOCC3=O)CC2)CC1,inactive
5,Cc1ccsc1C(=O)N1CCC2(CC1)CC(N(C(=O)c1ccccc1)C1CC1)CCO2 (stereo not drawn),active: 50.1 µM
6,Cc1ccc(C(=O)N2CCN(C(=O)c3nnn4c3COC(c3ccc(Cl)cc3)C4)CC2)c(C)c1 (stereo not drawn),"inconclusive: 25.1 µM [inhibitor, partial curve, poor fit]"
7,CCNC(=O)OC1CCN(C(=O)c2ncoc2-c2ccccc2)CC(=O)N(C)c2ccccc21 (stereo not drawn),inactive
8,CN1C(=O)C2(CCN(C(=O)CCC3CCCC3)CC2)c2ccccc21,"inconclusive: 31.6 µM [inhibitor, partial curve, poor fit]"
9,O=C(C1CCC1)N1CCC(Cc2nc(C3CCOCC3)no2)CC1,"inconclusive: 89.1 µM [inhibitor, single point]"
10,COCCN1CCOC[C@H]2CCN(C(=O)c3sc(C)nc3C)C[C@H]21,inactive
11,CC1=C[C@@H](CNC(=O)Nc2ccccc2)[C@H](C(C)C)C[C@H]1CC(=O)NCCN(C)C,"inconclusive: 100 µM [inhibitor, partial curve, poor fit]"
12,CCn1c(=O)c2ccnn2c2ccc(C(=O)NC3CCCCC3)cc21,"inconclusive: 56.2 µM [inhibitor, partial curve, poor fit]"
13,Cc1nn(-c2ccccc2)c2c1C(C1CC1)N(C1CCN(C(=O)C(C)C)C1)C2=O (stereo not drawn),"inconclusive: 50.1 µM [inhibitor, partial curve, poor fit]"
14,CCn1cc(CN2CCC(N3CC(OCCOC)C34CCCCC4)CC2)cn1 (stereo not drawn),inactive
15,CCC1(O)CCC12CCN(C(=O)CCc1ccc(OC)cc1)CC2 (stereo not drawn),inactive
16,CCOC(=O)C1=CN(CC(=O)NCCc2ccc(Cl)cc2)S(=O)(=O)N=C1C,"inconclusive: 89.1 µM [inhibitor, single point]"
17,Cc1ccccc1CN1CC2(COCC1=O)CN(c1ccccc1)C2,"inconclusive: 100 µM [inhibitor, partial curve]"
18,COc1ccccc1CNC(=O)c1cc2c(s1)CCN(C(=O)c1ccc(C)cc1)C2,"inconclusive: 44.7 µM [inhibitor, partial curve, poor fit]"
19,CC(C)NC(=O)NCCNC(=O)c1cccc(-c2ccsc2)c1,active: 100 µM
20,CCOC1CCOC2(CCN(C(=O)c3ccco3)CC2)C1 (stereo not drawn),inactive
21,COc1ccc(-n2nc3n(c2=O)CCN(Cc2ccc(C#N)cc2)C3)cc1,inactive

row,SMILES,Potency
1,CNC(=O)CC1C(=O)NCCN1CC(=O)Nc1cc(OC)cc(OC)c1 (stereo not drawn),inactive
2,CCN1c2cc(C(=O)Nc3ccc(Cl)c(Cl)c3)ccc2C(=O)N2CCCCCC21 (stereo not drawn),"inconclusive: 22.4 µM [inhibitor, full curve]"
3,N#Cc1ccc(OCc2nc3c(n2Cc2ccccc2)C(=O)N(CC2CC2)CCN3)cc1,"inconclusive: 22.4 µM [inhibitor, full curve, poor fit]"
4,Cc1ccc2c(C(=O)NCc3ccc(Cl)cc3Cl)cnn2c1,"inconclusive: 100 µM [inhibitor, partial curve, poor fit]"
5,CCN(CC)C(=O)C[C@@H]1CCNC[C@@H]1Cc1cc(-c2ccc(F)cc2)on1,"inconclusive: 100 µM [inhibitor, partial curve, poor fit]"
6,Cc1nnc(-c2cc(-c3ccc(CO)cc3)ccn2)n1CCc1ccccc1,"inconclusive: 100 µM [inhibitor, partial curve, poor fit]"
7,CC(=O)Nc1cccc(-c2cc(-c3c(C)noc3C)c3cncn3c2)c1,"inconclusive: 35.5 µM [inhibitor, partial curve]"
8,Cn1cccc1CN1CCC2(CC1)CNC(=O)c1ccccc1O2,"inconclusive: 112 µM [inhibitor, single point]"
9,CN(CCc1ccccn1)c1cc(C2CC(O)C2)ncn1 (stereo not drawn),inactive
10,Fc1cccc(Cc2noc(-c3nc(-c4ccccc4F)no3)n2)c1,"inconclusive: 79.4 µM [inhibitor, partial curve, poor fit]"
11,C#CCNC(=O)c1nc2sccn2c1-c1cccc(OC)c1,inactive
12,COc1ccccc1-c1ccc2c(C(=O)NCCc3ccc(Cl)cc3)nn(C)c2n1,"inconclusive: 50.1 µM [inhibitor, partial curve, poor fit]"
13,CC(NC(=O)c1ccc2cccc(F)c2n1)c1ccccc1-n1cccn1 (stereo not drawn),"inconclusive: 89.1 µM [inhibitor, single point]"
14,O=C(c1ccc(Cl)nc1)N1CCC2(CC1)CC(=O)N(c1ccccc1)c1ccccc1O2,"inconclusive: 79.4 µM [inhibitor, partial curve, poor fit]"
15,CCCCCC(=O)N1CC[C@@H](CC(=O)O)[C@@H](CC2=NCCc3cc(OC)ccc32)C1,"inconclusive: 126 µM [inhibitor, single point]"
16,Cc1ccc(CN2C(=O)[C@@H]3C[C@@H](O)CN3C3(CN(Cc4ccc(Cl)cc4)C3)C2=O)o1,"inconclusive: 100 µM [inhibitor, partial curve, poor fit]"
17,COc1cccc(N2C(=O)NC(=NC3CCCCC3)C23CCN(CC2CCCCC2)C3)c1 (stereo not drawn),"inconclusive: 2.51 µM [inhibitor, full curve, poor fit]"
18,O=C(NCC(F)(F)F)C1CCCN1c1nccc(Nc2ccccc2F)n1 (stereo not drawn),"inconclusive: 39.8 µM [inhibitor, partial curve, poor fit]"
19,CN(C)C(=O)C1CN(C(=O)Nc2ccc(F)cc2F)CC12CCOCC2 (stereo not drawn),"inconclusive: 89.1 µM [inhibitor, single point]"
20,Cc1nn(-c2ccccc2)c2c1C(C1CC1)N(C1CCN(Cc3cccc(C(F)(F)F)c3)CC1)C2=O (stereo not drawn),inactive
21,Cc1nn2c(c1-c1cccnc1N1CCOCC1)N(CCc1ccccc1)CCC2,active: 25.1 µM

row,SMILES,Potency
1,CC(C)c1nc(-c2ccc(OC3CCNC3)cc2)no1 (stereo not drawn),"inconclusive: 70.8 µM [inhibitor, partial curve, poor fit]"
2,COc1ccc(C(=O)N2CCN3C(=O)N(Cc4ccccc4)C(=O)[C@H]3C2)cc1,"inconclusive: 126 µM [inhibitor, single point]"
3,CC(C)c1ccc(CNC(=O)CN2CC3CC(C2)[C@H]2CCCC(=O)N2C3)cc1 (stereo partly drawn),inactive
4,O=C(Cc1cccc(Cl)c1)N1CCC(C(=O)N2CCC(N3Cc4ccccc4C3=O)CC2)CC1,active: 50.1 µM
5,COCCOC1CN(C2CCN(Cc3ccc(F)cc3F)CC2)C12CCCCC2 (stereo not drawn),"inconclusive: 89.1 µM [inhibitor, single point]"
6,CCOCCC(=O)N1CC[C@@H]2[C@@H](CCC(=O)N2CCc2ccccn2)C1,"inconclusive: 35.5 µM [inhibitor, single point]"
7,CCOC(=O)C1CCN(C(=O)Cc2ccc(N(Cc3cccc(F)c3)C(=O)c3ccco3)cc2)CC1,"inconclusive: 44.7 µM [inhibitor, partial curve, poor fit]"
8,O=C1CO[C@H]2CCN(Cc3ccccc3Cl)CC[C@@H]2N1CCc1cccnc1,"inconclusive: 112 µM [inhibitor, partial curve, poor fit]"
9,CN(Cc1ccccc1Cl)Cc1cccn1C,inactive
10,Cn1cc(-c2ccccc2)c2nc(COc3ccc(Cl)cc3)cn2c1=O,"inconclusive: 56.2 µM [inhibitor, partial curve, poor fit]"
11,COc1ccc(NC(=O)C2CCc3nnc(C4CCN([S+](=O)([O-])c5ccccc5Cl)CC4)n32)cc1 (stereo not drawn),inactive
12,COc1ccc(N2CCN(c3nc(C(=O)NC4CC4)cs3)CC2)cc1,active: 31.6 µM
13,Cc1cc(CNS(=O)(=O)c2ccc3c(c2)CCN(C(=O)C(O)C(C)C)C3)no1 (stereo not drawn),"inconclusive: 25.1 µM [inhibitor, full curve]"
14,CCc1nc(CN2CCOC(c3ccc4cc(OC)ccc4c3)C2)no1 (stereo not drawn),"inconclusive: 56.2 µM [inhibitor, partial curve, poor fit]"
15,COc1ccc(-c2noc(Nc3cc(OC)c(OC)c(OC)c3)n2)cc1OC,active: 22.4 µM
16,COCc1cc(C[C@@H]2C[C@H](NS(=O)(=O)c3ccccc3)C2(C)C)no1,"inconclusive: 100 µM [inhibitor, partial curve, poor fit]"
17,Cc1ccc(S(=O)(=O)N[C@H]2CO[C@H]3[C@@H]2OC[C@@H]3n2nnnc2Oc2ccc(-n3ccnc3)cc2)cc1,"inconclusive: 50.1 µM [inhibitor, partial curve, poor fit]"
18,O=C(Cc1ccc(N(Cc2ccccc2)C(=O)c2ccco2)cc1)NCc1ccc(F)cc1,active: 39.8 µM
19,O=C1NCCOCCCN(S(=O)(=O)c2ccc3c(c2)CCC3)[C@H]2CCC[C@@H]12,"inconclusive: 79.4 µM [inhibitor, single point]"
20,O=C(NCc1ccccn1)C1CCCN(Cc2cccc(-c3ccsc3)c2)C1 (stereo not drawn),"inconclusive: 56.2 µM [inhibitor, partial curve, poor fit]"
21,O=C(NCc1nnc2ccc(-c3ccc(F)cc3)nn12)c1ccc(F)cc1Cl,"inconclusive: 50.1 µM [inhibitor, partial curve, poor fit]"
